The results in this text go back to patent CN109575132A (BEIJING KANGPU MEITE INNOVATION PHARMACEUTICAL TECH CO LTD, dated 2019).

The term Kd denotes a measure of binding affinity in units of concentration. A lower Kd goes with tighter binding.

The target in the assay is C3d抗原 (补体C3d分子). Nature of the assay: non-competitive ELISA; C3d coated at 2, 1, 0.5, 0.25 μg/ml, 2-fold dilutions of ScFv, HRP/anti-ScFv secondary, Ka formula.
Sequence of C3d抗原 (补体C3d分子) (chain, as listed by the source): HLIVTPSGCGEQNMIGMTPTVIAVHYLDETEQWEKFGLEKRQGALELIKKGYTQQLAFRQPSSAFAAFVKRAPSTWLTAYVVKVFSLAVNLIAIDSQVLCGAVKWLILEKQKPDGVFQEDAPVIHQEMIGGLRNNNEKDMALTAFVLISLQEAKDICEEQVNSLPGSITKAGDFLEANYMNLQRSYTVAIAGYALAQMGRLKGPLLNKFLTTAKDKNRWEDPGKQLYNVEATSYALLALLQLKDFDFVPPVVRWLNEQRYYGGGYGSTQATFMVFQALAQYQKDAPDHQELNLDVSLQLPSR

B1: 人源抗补体C3d分子的单链抗体 V H -Linker-V L (ScFv) (scFv)
scFv: [about 100 residues not given here]GINPLGDVDDWGQGTLVTVSSAGGGGSGGGGSGGGGSMASYELTQPPSVSVAPGQTARITCSGDALGDKYASWYQQKPGQAPVLVIYEDSKRPSGIPERFSGSNSGNTATLTISGTQAEDEADYYCSSRDGGQHVFGGGTKLTVL
notes: Human scFv from a naive phage library, expressed in CHO cells from pEE14.1/VH-Linker-VL and purified (about 26 kD); No tag or signal peptide is described; also called 抗C3d单链抗体; 靶向C3d的单链抗体
For the molecule B1, the Kd came out at 122 nM.
